# Data as given in publication PMC12136788.
# Some of the results follow.
# B1: chr1:225611761:225611762:-_ENSG00000143815_ENST00000272163|hu_mus|hu_hu_hu_mus_True|8_8 (ssRNA)
# RNA: GGGAGUUCUACAGUCCGACGAUCCCAGGCCAUCGGCCUCUGACCACUUCACCCUCAACAAACUUCCUACUUGGCAUUUUCUAAAAUUAGUCUGGCCGCGCUCCGGCGGGAACUCCAGCCACUCCAGGGAGAAUAGUAGCAGCCCAACAGAGGAUUGAGCAUCA
# B2: chr4:144460044:144460045:+_ENSG00000153147_ENST00000283131|hu_mus|hu_hu_hu_mus_False|68_88 (ssRNA)
# RNA: GGGAGUUCUACAGUCCGACGAUCACGGUCCAUAGCCUGAAGAUCAACUUGGGGAUUCCAAUCUGAGUCAUACAAAAUGACUACAUCAGCAGUUGCAAGAUUGAUGCCCAGACCACCAGCACGUGUGCUUAGCAUAAAUACAAACAACAGAGGAUUGAGCAUCA
# B3: chr5:143665068:143665069:-_ENSMUSG00000029580_ENSMUST00000100497|mus_mus|FALSE|FALSE (ssRNA)
# RNA: GGGAGUUCUACAGUCCGACGAUCCAUAAUUUACACAGAAGCAAUGCUGUCACCUUCCCCGGGGUGGACUCAGGGCAUGGACGCGACCAUCCUCCUCUUAGGAGUGGGGGUGGCUUUUGGGAGGGUGAGGGACUUCCUGUAACCCAACAGAGGAUUGAGCAUCA
# B4: chr16:94690093:94690094:+_ENSMUSG00000040785_ENSMUST00000117648|mus_hu|mus_mus_mus_hu_True|28_78 (ssRNA)
# RNA: GGGAGUUCUACAGUCCGACGAUCGGGCUGGGAUGACGGACACACAGCCUCGAUUCCGGUAAAAAAAAGUCUUAGUCGAUACUAAUUAAAAAGUGUUAAUGAUUUUUAUUACCAAAAUUACAUCUAUAAAAGAUGAAAAGCAAACAACAGAGGAUUGAGCAUCA
# B5: 94668236_94668435_1030_CDS_ENSMUSG00000038902_ENSMUST00000107270|mouse|control|control (ssRNA)
# RNA: GGGAGUUCUACAGUCCGACGAUCCUUCACAGUGACAAAGCUGGCAAUGCUCACUGCAGGUGGAGAGGGGAAGGAGGGAGCUAGUUUGGGAUUCGAGGUCUGGUUGGACUGGCCUGGAGGCUGACCAGCUAGCUGCCCCAGUGACAACAGAGGAUUGAGCAUCA
# B6: chr14:70181642:70181643:+_ENSG00000100647_ENST00000342745|hu_mus|FALSE|FALSE (ssRNA)
# RNA: GGGAGUUCUACAGUCCGACGAUCAAAGCAAACCCAGAUUGAUUGACAUCCUGCACAGUCAAUUAAGCAUGUGUUGUUUAAACCAUUUUAUGAGUACCAUUCUGCAAAGGAUCCCAUAGUGGUGCACAGCCUUAAGAAGCCAGGCAACAGAGGAUUGAGCAUCA
# B7: chr18:56819859:56819860:+_ENSG00000166562_ENST00000588875|hu_mus|FALSE|FALSE (ssRNA)
# RNA: GGGAGUUCUACAGUCCGACGAUCAACCUUGAUUACUCUGUGAACUAUCGGAAUGUCUCUUCCUUCAACCUUAAAAACAACUAUUUCACCAGCUCUGAUGGGGUCCUCCCGGAAAUUCGUGAGGAACAGCAGAUCUCCUCUGUGCAACAGAGGAUUGAGCAUCA
# B8: chr9:15127005:15127006:-_ENSMUSG00000046111_ENSMUST00000161132|mus_hu|motif|central (ssRNA)
# RNA: GGGAGUUCUACAGUCCGACGAUCUGGUAUAGAGCUCUGUAAUGAAAAUGAUCCAGAACUUGCAAAAAGCUCUGAUUCUCCGGGUUGAGAUAGUUUUUUGGUGAUUUUUGGAAUGUCUGUUUCAGCUGAAUUCUCAAAAUAUUUCAACAGAGGAUUGAGCAUCA
# B9: chr7:112906983:112906984:-_ENSMUSG00000036862_ENSMUST00000078482|mus_mus|motif|central (ssRNA)
# RNA: GGGAGUUCUACAGUCCGACGAUCUGGGGAGAUAACUGGAGUCCCUGGUGGUGCAUUUUCACGGAGCACAGCCUCACGGCGGGUUCUGGGAAAGCGGGGUCCACGCUCAGGCUCUCCCUGUAUUCCAACAACGACCACACCAGUCAACAGAGGAUUGAGCAUCA
# B10: chr1:46159212:46159213:+_ENSG00000159596_ENST00000372025|hu_mus|hu_hu_hu_mus_True|38_88 (ssRNA)
# RNA: GGGAGUUCUACAGUCCGACGAUCUCUGAUCCCUCCCAAGAAAGCUAGGAAACUGGCUCCAUAAGCCAUCUGAGUGAAAGCUAGGACGGGGAUAUAAGUUUUUGUCAUUACCAUGAGAAGUGGGGGAGCAGUAAAGGGGAUUAACAACAGAGGAUUGAGCAUCA
# B11: 11582453_11582573_7118_3pUTR_ENSG00000205269_ENST00000379426|human|control|control (ssRNA)
# RNA: GGGAGUUCUACAGUCCGACGAUCUGCACAAGUAUCUUAACUUUCAAGGCACUAAGGCUUCAUUUAGCUUUUAAAAUCUGCCUGUGAUUUACCAAAAGAUUCAUCAGUGGUCUGAGAGUUAACACAAUUUGAAAGUGAGACUUUCAACAGAGGAUUGAGCAUCA
# B12: chr8:61654917:61654918:+_ENSG00000171316_ENST00000423902|hu_hu|motif|central (ssRNA)
# RNA: GGGAGUUCUACAGUCCGACGAUCAUUCAUUGGAGUAUUAUUUGUAAGGCCUAAAUUUUGAUUCAUCCCUGUAUUGUUAACGGAUCCCUGAUUUAGGUUACUGUAAGGAUAUCGAGAAUACUGCCCUGAGUUGUUUAUAGUAGGCAACAGAGGAUUGAGCAUCA
# B13: chr5:67074945:67074946:+_ENSMUSG00000029223_ENSMUST00000031131|mus_hu|FALSE|FALSE (ssRNA)
# RNA: GGGAGUUCUACAGUCCGACGAUCUCGUCCAUCAAGUUCAUAGAGGUGGCCAUCCACGUUGUUAAACAGAAUAAAAUGGAAAUUCACCUUGUCAUCUACCCGACAUUGGCCUUCCUGUGCCACGGCAUCAUGGGCUGCCUGUAUCAACAGAGGAUUGAGCAUCA
# B14: chr7:117451621:117451622:-_ENSMUSG00000038371_ENSMUST00000164759|mus_hu|FALSE|FALSE (ssRNA)
# RNA: GGGAGUUCUACAGUCCGACGAUCAAUGUGAGGCAAUGUAAUGCCUUCACGAAAGUUAAAGUAAUCCAGUUACAAAAGAAGCACUGUGUAUAGUCUCAAAUAGCUGAAGGUACAAUGGGCUCCAUAUUUUACAAAGUACAAAAACAACAGAGGAUUGAGCAUCA
# Biological target: T1, UNK ZnF1-3 (human, UniProt Q9C0B0 31-174)
# T1 sequence: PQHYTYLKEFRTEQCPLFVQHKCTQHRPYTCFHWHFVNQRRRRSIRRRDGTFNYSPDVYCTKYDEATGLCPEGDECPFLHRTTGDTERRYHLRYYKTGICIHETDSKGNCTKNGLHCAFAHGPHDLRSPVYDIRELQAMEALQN
# Assay: nsRBNS (natural sequence RNA bind-n-seq); RBNS binding buffer (assumed for nsRBNS): 25 mM Tris pH 7.5, 150 mM KCl, 3 mM MgCl2, 0.01% Triton X-100, 500 ug/ml BSA, 20 U/ml SUPERase-In, 4 C; UNK is unkempt and MSI1 is Musashi-1; names of the RNAs are library labels; protein concentration not given here; high values mean tight binding
row,Binder,binding signal
1,B1,1.23 enrichment R
2,B2,1.26 enrichment R
3,B3,0.971 enrichment R
4,B4,0.946 enrichment R
5,B5,0.989 enrichment R
6,B6,1.23 enrichment R
7,B7,0.758 enrichment R
8,B8,0.991 enrichment R
9,B9,0.757 enrichment R
10,B10,1.28 enrichment R
11,B11,0.722 enrichment R
12,B12,0.753 enrichment R
13,B13,1.27 enrichment R
14,B14,1.26 enrichment R
